In article PMC4091835 (Nature structural & molecular biology, 2014):

Target: Human Cdc42 residues 1–178, constitutively active mutant G12V (human, UniProt P60953 1-178, G12V)
Assay: ITC

Kd: 3.8 µM
B1: IRSp53 FL mutant SH3-SWAP (SH3 domain of IRSp53 swapped for that of Eps8) (other)
chain: MSLSRSEEMHRLTENVYKTIMEQFNPSLRNFIAMGKNYEKALAGVTYAAKGYFDALVKMGELASESQGSKELGDVLFQMAEVHRQIQNQLEEMLKSFHNELLTQLEQKVELDSRYLSAALKKYQTEQRSKGDALDKCQAELKKLRKKSQGSKNPQKYSDKELQYIDAISNKQGELENYVSDGYKTALTEERRRFCFLVEKQCAVAKNSAAYHSKGKELLAQKLPLWQQACADPSKIPERAVQLMQQVASNGATLPSALSASKSNLVISDPIPGAKPLPVPPELAPFVGRMSAQESTPIMNGVTGPDGEDYSPWADRKAAQPKSLSPPQSQSKLSDSYSNTLPVRKSVTPKNSYATTENKTLPRSSSMAAGLERQPKKYAKSKYDFVARNNSELSVLKDDILEILDDRKQWWKVRNASGDSGFVPNNILDIVRPDGSDRLHMSLQQGKSSSTGNLLDKDDLAIPPPDYGAASRAFPAQTASGFKQRPYSVAVPAFSQGLDDYGARSMSSGSGTLVSTV
